Experimental data taken from the supplement of paper PMC8183993.
Values joined by “and” are separate entries in the source; they are usually repeats but may differ in a detail not shown here. Identical values can stand only once. Counter-ions that a name gives are not always drawn. ± gives the standard deviation of the averaged measurements. The full ranking holds about 3,100 compounds; the median of “mean cytoplasmic OPP incorporation (global translation) relative to DMSO” is about 100, and the lowest 2% start at about 56. The list shows a part of the results.

test system: U2OS; experiment: mean cytoplasmic OPP incorporation (global translation) relative to DMSO (% of DMSO); higher = more protein synthesis; details: 10 µM; 24 h
Method: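 Primary image-based screen in U2OS cells: compounds at 10 uM for 24 h, then a 1 h o-propargyl-puromycin (OPP) pulse, click labelling, and high-throughput microscopy. Mean cytoplasmic OPP intensity and nuclei count were normalised to DMSO wells within each plate (DMSO = 100) and averaged over triplicate plates.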

| Structure (SMILES) | mean cytoplasmic OPP incorporation |
| --- | --- |
| COc1cc(NC(=O)c2ccccn2)ccc1Cl | 86.5 |
| CCN(CCCCOC(=O)c1ccc(OC)c(OC)c1)C(C)Cc1ccc(OC)cc1 (stereo not given) [Mebeverine hydrochloride] | 109 |
| CCN(CC)C(=O)C1(c2ccccc2)CC1CN (stereo not given) [Milnacipran HCl] | 92.2 |
| Cc1cc(C(C)(C)C)cc(C)c1CC1=NCCN1 [Xylometazoline hydrochloride] | 94.9 |
| CC(C)(CO)[C@@H](O)C(=O)NCCC(=O)O [Pantothenic acid (pantothenate)] | 98.9 |
| O=c1nc2ccccc2c2n1CC(CN1CCN(c3ccccc3)CC1)N2 (stereo not given) | 101 |
| O=P(O)(O)C(O)(Cn1ccnc1)P(=O)(O)O [Zoledronic Acid (Zoledronate)] | 99 |
| CO[C@H]1/C=C/O[C@@]2(C)Oc3c(C)c(O)c4c(O)c(c5c(nc6cc(C)ccn65)c4c3C2=O)NC(=O)/C(C)=C\C=C\[C@H](C)[C@H](O)[C@@H](C)[C@@H](O)[C@@H](C)[C@H](OC(C)=O)[C@@H]1C [Rifaximin (Xifaxan)] | 123 |
| CO[C@H]1/C=C/O[C@@]2(C)Oc3c(C)c(O)c4c(O)c(c5c(nc6cc(C)ccn65)c4c3C2=O)NC(=O)/C(C)=C\C=C\[C@H](C)[C@H](O)[C@@H](C)[C@@H](O)[C@@H](C)[C@H](OC(C)=O)[C@@H]1C [Rifaximin] | 101 |
| C[C@]12C=CC(=O)N[C@@H]1CC[C@@H]1[C@@H]2CC[C@]2(C)[C@@H](C(=O)Nc3cc(C(F)(F)F)ccc3C(F)(F)F)CC[C@@H]12 [Dutasteride] | 109 |
| Clc1cccc(Cl)c1NC1=NCCN1 [Clonidine hydrochloride] | 96.56 ± 0.3 |
| CCN(CC)c1ccc(/C=N/NC(=O)c2ccc(O)cc2)cc1 | 94.8 |
| CC(=O)O[C@]1(C(C)=O)CC[C@H]2[C@@H]3C=C(Cl)C4=CC(=O)CC[C@]4(C)[C@H]3CC[C@@]21C [Chlormadinone acetate] | 111 |
| CN1CCN(CCc2ccc(Cl)c(Cl)c2)CC1 [BD 1063 dihydrochloride] | 96.7 |
| CCN(CC)C(C)CN1c2ccccc2Sc2ccccc21 (stereo not given) [Ethopropazine hydrochloride] | 108 |
| CCCNC(=O)NS(=O)(=O)c1ccc(Cl)cc1 [Chlorpropamide] | 101 |
| COc1ccc(-c2nc(N3CCOCC3)c3sc(CN(C)c4ncc(C(=O)NO)cn4)cc3n2)cn1 | 86.6 |
| Cc1cnc(Nc2ccc(OCCN3CCCC3)cc2)nc1Nc1cccc(S(=O)(=O)NC(C)(C)C)c1 | 82.6 and 66.4 |
| CC=CC(=O)N(CC)c1ccccc1C [Crotamiton] | 99 |
| CC1=C(C)C(=O)C(C(CCCCCC(=O)O)c2ccccc2)=C(C)C1=O (stereo not given) [Seratrodast] | 97.1 |
